# The supplement of paper PMC8728848
# The list shows a part of the results.
# Key:
# Test in all cases: glycan array binding signal (z-score within array); higher = stronger binding
# Conditions in all cases: glycan notation: IUPAC condensed, linker removed
# [1] = target: Fuc(a1-2)[Gal(a1-3)]Gal(b1-4)GlcNAc(b1-2)Man(a1-3)[Fuc(a1-2)[Gal(a1-3)]Gal(b1-4)GlcNAc(b1-2)Man(a1-6)]Man(b1-4)GlcNAc(b1-4)GlcNAc
# Outline: (§1)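 The Consortium for Functional Glycomics database supplied 3228 glycan arrays, of which those lacking an available protein sequence were dropped. The binding signal, a within-array Z-score, was averaged across arrays of the same protein sequence and across linkers. Negative scores can be read as non-binding.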
# [2] = target: Fuc(a1-2)[Gal(a1-3)]Gal(b1-4)GlcNAc(b1-2)Man(a1-3)[Fuc(a1-2)[Gal(a1-3)]Gal(b1-4)GlcNAc(b1-2)Man(a1-6)]Man(b1-4)GlcNAc(b1-4)[Fuc(a1-6)]GlcNAc
# Outline: as §1
# [3] = target: Fuc(a1-2)[Gal(a1-3)]Gal(b1-4)GlcNAc(b1-3)GalNAc
# Outline: as §1
# [4] = target: Fuc(a1-2)[Gal(a1-3)]Gal(b1-4)GlcNAc(b1-6)GalNAc
# Outline: as §1
# [5] = target: Fuc(a1-2)[Gal(a1-3)]Gal(b1-4)[Fuc(a1-3)]Glc
# Outline: as §1
# [6] = target: Fuc(a1-2)[Gal(a1-3)]Gal(b1-4)[Fuc(a1-3)]GlcNAc
# Outline: as §1
# [7] = target: Fuc(a1-2)[Gal(a1-3)]Gal(b1-4)[Fuc(a1-3)]GlcNAc(b1-3)GalNAc
# Outline: as §1
# [8] = target: Fuc(a1-2)[Gal(a1-4)]Gal(b1-4)GlcNAc
# Outline: as §1
# [9] = target: Fuc(a1-2)[GalNAc(a1-3)]Gal
# Outline: as §1
# [10] = target: Fuc(a1-2)[GalNAc(a1-3)]Gal(b1-3)GalNAc(a1-3)[Fuc(a1-2)]Gal(b1-4)GlcNAc
# Outline: as §1
# [11] = target: Fuc(a1-2)[GalNAc(a1-3)]Gal(b1-3)GalNAc(b1-3)Gal(a1-4)Gal(b1-4)Glc
# Outline: as §1
# [12] = target: Fuc(a1-2)[GalNAc(a1-3)]Gal(b1-3)GlcNAc
# Outline: as §1
# [13] = target: Fuc(a1-2)[GalNAc(a1-3)]Gal(b1-3)GlcNAc(b1-2)Man(a1-3)[Fuc(a1-2)[GalNAc(a1-3)]Gal(b1-3)GlcNAc(b1-2)Man(a1-6)]Man(b1-4)GlcNAc(b1-4)GlcNAc
# Outline: as §1
# [14] = target: Fuc(a1-2)[GalNAc(a1-3)]Gal(b1-3)GlcNAc(b1-2)Man(a1-3)[Fuc(a1-2)[GalNAc(a1-3)]Gal(b1-3)GlcNAc(b1-2)Man(a1-6)]Man(b1-4)GlcNAc(b1-4)[Fuc(a1-6)]GlcNAc
# Outline: as §1
# [15] = target: Fuc(a1-2)[GalNAc(a1-3)]Gal(b1-3)GlcNAc(b1-3)GalNAc
# Outline: as §1
# [16] = target: Fuc(a1-2)[GalNAc(a1-3)]Gal(b1-3)GlcNAc(b1-6)GalNAc
# Outline: as §1
# [17] = target: Fuc(a1-2)[GalNAc(a1-3)]Gal(b1-4)Glc
# Outline: as §1
# [18] = target: Fuc(a1-2)[GalNAc(a1-3)]Gal(b1-4)GlcNAc
# Outline: as §1
# [19] = target: Fuc(a1-2)[GalNAc(a1-3)]Gal(b1-4)GlcNAc(b1-2)Man
# Outline: as §1
# [20] = target: Fuc(a1-2)[GalNAc(a1-3)]Gal(b1-4)GlcNAc(b1-2)Man(a1-3)[Fuc(a1-2)[GalNAc(a1-3)]Gal(b1-4)GlcNAc(b1-2)Man(a1-6)]Man(b1-4)GlcNAc(b1-4)GlcNAc
# Outline: as §1
# [21] = target: Fuc(a1-2)[GalNAc(a1-3)]Gal(b1-4)GlcNAc(b1-2)Man(a1-3)[Fuc(a1-2)[GalNAc(a1-3)]Gal(b1-4)GlcNAc(b1-2)Man(a1-6)]Man(b1-4)GlcNAc(b1-4)[Fuc(a1-6)]GlcNAc
# Outline: as §1
# [22] = target: Fuc(a1-2)[GalNAc(a1-3)]Gal(b1-4)GlcNAc(b1-3)Gal(b1-4)GlcNAc
# Outline: as §1
# [23] = target: Fuc(a1-2)[GalNAc(a1-3)]Gal(b1-4)GlcNAc(b1-3)Gal(b1-4)GlcNAc(b1-3)Gal(b1-4)GlcNAc
# Outline: as §1
# [24] = target: Fuc(a1-2)[GalNAc(a1-3)]Gal(b1-4)GlcNAc(b1-3)GalNAc
# Outline: as §1
# [25] = target: Fuc(a1-2)[GalNAc(a1-3)]Gal(b1-4)GlcNAc(b1-3)[Fuc(a1-2)[GalNAc(a1-3)]Gal(b1-4)GlcNAc(b1-6)]GalNAc
# Outline: as §1
# [26] = target: Fuc(a1-2)[GalNAc(a1-3)]Gal(b1-4)GlcNAc(b1-6)GalNAc
# Outline: as §1
# [27] = target: Fuc(a1-2)[GalNAc(a1-3)]Gal(b1-4)[Fuc(a1-3)]GlcNAc
# Outline: as §1
# [28] = target: Fuc(a1-2)[GalNAc(a1-3)]Gal(b1-4)[Fuc(a1-3)]GlcNAc(b1-3)GalNAc
# Outline: as §1
# [29] = target: Fuc(a1-2)[GalNAc(a1-4)]Gal(b1-4)GlcNAc
# Outline: as §1
# [30] = target: Fuc(a1-2)[GalNAc(b1-3)]Gal
# Outline: as §1
# [31] = target: Fuc(a1-3)GlcNAc
# Outline: as §1
# [32] = target: Fuc(a1-3)[Gal(b1-4)]Glc6S
# Outline: as §1
# [33] = target: Fuc(a1-3)[Gal(b1-4)]GlcNAc
# Outline: as §1
# [34] = target: Fuc(a1-3)[Gal(b1-4)]GlcNAc(b1-2)Man
# Outline: as §1
# [35] = target: Fuc(a1-3)[Gal(b1-4)]GlcNAc(b1-2)Man(a1-3)[Fuc(a1-3)[Gal(b1-4)]GlcNAc(b1-2)Man(a1-6)]Man(b1-4)GlcNAc(b1-4)GlcNAc
# Outline: as §1
# [36] = target: Fuc(a1-3)[Gal(b1-4)]GlcNAc(b1-2)Man(a1-3)[Fuc(a1-3)[Gal(b1-4)]GlcNAc(b1-2)Man(a1-6)]Man(b1-4)GlcNAc(b1-4)[Fuc(a1-6)]GlcNAc
# Outline: as §1
# [37] = target: Fuc(a1-3)[Gal(b1-4)]GlcNAc(b1-3)Gal(b1-3)[Fuc(a1-4)]GlcNAc
# Outline: as §1
# [38] = target: Fuc(a1-3)[Gal(b1-4)]GlcNAc(b1-3)Gal(b1-4)[Fuc(a1-3)]GlcNAc
# Outline: as §1
# [39] = target: Fuc(a1-3)[Gal(b1-4)]GlcNAc(b1-3)Gal(b1-4)[Fuc(a1-3)]GlcNAc(b1-3)Gal(b1-4)[Fuc(a1-3)]GlcNAc
# Outline: as §1
# [40] = target: Fuc(a1-3)[Gal(b1-4)]GlcNAc(b1-3)GalNAc
# Outline: as §1
# [41] = target: Fuc(a1-3)[Gal(b1-4)]GlcNAc(b1-6)GalNAc
# Outline: as §1
# [42] = target: Fuc(a1-3)[Gal(b1-4)]GlcNAc(b1-6)[Gal(b1-3)GlcNAc(b1-3)]Gal(b1-4)Glc
# Outline: as §1
# [43] = target: Fuc(a1-3)[Gal(b1-4)]GlcNAc6S
# Outline: as §1
# [44] = target: Fuc(a1-3)[Gal3S(b1-4)]Glc
# Outline: as §1
# [45] = target: Fuc(a1-3)[Gal3S(b1-4)]GlcNAc
# Outline: as §1
# [46] = target: Fuc(a1-3)[Gal3S(b1-4)]GlcNAc6S
# Outline: as §1
# [47] = target: Fuc(a1-3)[GalNAc(b1-4)]GlcNAc
# Outline: as §1
# [48] = target: Fuc(a1-3)[GalNAc(b1-4)]GlcNAc6S
# Outline: as §1
# [49] = target: Fuc(a1-4)GlcNAc
# Outline: as §1
# [50] = target: Fuc(b1-3)GlcNAc
# Outline: as §1
# [51] = target: Gal(a1-2)Gal
# Outline: as §1
# [52] = target: Gal(a1-3)Gal
# Outline: as §1
# [53] = target: Gal(a1-3)Gal(b1-3)GlcNAc
# Outline: as §1
# [54] = target: Gal(a1-3)Gal(b1-3)GlcNAc(b1-2)Man
# Outline: as §1
# [55] = target: Gal(a1-3)Gal(b1-3)GlcNAc(b1-2)Man(a1-3)[Gal(a1-3)Gal(b1-3)GlcNAc(b1-2)Man(a1-6)]Man(b1-4)GlcNAc(b1-4)GlcNAc
# Outline: as §1
# [56] = target: Gal(a1-3)Gal(b1-3)GlcNAc(b1-3)GalNAc
# Outline: as §1
# [57] = target: Gal(a1-3)Gal(b1-3)GlcNAc(b1-6)GalNAc
# Outline: as §1
# [58] = target: Gal(a1-3)Gal(b1-3)[Fuc(a1-4)]GlcNAc(b1-2)Man(a1-3)[Gal(a1-3)Gal(b1-3)[Fuc(a1-4)]GlcNAc(b1-2)Man(a1-6)]Man(b1-4)GlcNAc(b1-4)GlcNAc
# Outline: as §1
# [59] = target: Gal(a1-3)Gal(b1-4)Glc
# Outline: as §1
# [60] = target: Gal(a1-3)Gal(b1-4)GlcNAc
# Outline: as §1
binder,measurement,setting,value
GSL-I-B4 (Griffonia simplicifolia) (protein) NFWSDVEDSIIFQGDANTTAGTLQLCKTNQYGTPLQWSAGRALYSDPVQLWDNKTESVASFYTEFTFFLKITGNGPADGLAFFLAPPDSDVKDAGEYLGLFNKSTATQPSKNQVVAVEFDTWTNPNFPEPSYRHIGINVNSIVSVATKRWEDSDIFSGKIATARISYDGSAEILTVVLSYPDGSDYILSHSVDMRQNLPESVRVGISASTGNNQFLTVYILSWRFSSNLQSTSVKAAMEPEITRTVV,glycan array binding signal (z-score),[1],3.69
same,glycan array binding signal (z-score),[2],0.628
same,glycan array binding signal (z-score),[3],-0.022
same,glycan array binding signal (z-score),[4],-0.198
same,glycan array binding signal (z-score),[5],0.489
same,glycan array binding signal (z-score),[6],1.68
same,glycan array binding signal (z-score),[7],-0.039
same,glycan array binding signal (z-score),[8],0.231
same,glycan array binding signal (z-score),[9],-0.184
same,glycan array binding signal (z-score),[10],-0.157
same,glycan array binding signal (z-score),[11],-0.202
same,glycan array binding signal (z-score),[12],-0.157
same,glycan array binding signal (z-score),[13],-0.171
same,glycan array binding signal (z-score),[14],-0.204
same,glycan array binding signal (z-score),[15],-0.125
same,glycan array binding signal (z-score),[16],-0.208
same,glycan array binding signal (z-score),[17],-0.135
same,glycan array binding signal (z-score),[18],-0.133
same,glycan array binding signal (z-score),[19],-0.201
same,glycan array binding signal (z-score),[20],-0.195
same,glycan array binding signal (z-score),[21],-0.191
same,glycan array binding signal (z-score),[22],-0.165
same,glycan array binding signal (z-score),[23],-0.056
same,glycan array binding signal (z-score),[24],-0.153
same,glycan array binding signal (z-score),[25],-0.199
same,glycan array binding signal (z-score),[26],-0.206
same,glycan array binding signal (z-score),[27],-0.138
same,glycan array binding signal (z-score),[28],-0.011
same,glycan array binding signal (z-score),[29],-0.092
same,glycan array binding signal (z-score),[30],-0.12
same,glycan array binding signal (z-score),[31],-0.127
same,glycan array binding signal (z-score),[32],-0.149
same,glycan array binding signal (z-score),[33],-0.153
same,glycan array binding signal (z-score),[34],-0.198
same,glycan array binding signal (z-score),[35],-0.131
same,glycan array binding signal (z-score),[36],-0.008
same,glycan array binding signal (z-score),[37],-0.174
same,glycan array binding signal (z-score),[38],-0.177
same,glycan array binding signal (z-score),[39],-0.189
same,glycan array binding signal (z-score),[40],-0.197
same,glycan array binding signal (z-score),[41],-0.151
same,glycan array binding signal (z-score),[42],-0.155
same,glycan array binding signal (z-score),[43],-0.2
same,glycan array binding signal (z-score),[44],-0.171
same,glycan array binding signal (z-score),[45],-0.11
same,glycan array binding signal (z-score),[46],-0.145
same,glycan array binding signal (z-score),[47],-0.134
same,glycan array binding signal (z-score),[48],-0.208
same,glycan array binding signal (z-score),[49],-0.23
same,glycan array binding signal (z-score),[50],-0.158
same,glycan array binding signal (z-score),[51],5.94
same,glycan array binding signal (z-score),[52],0.22
same,glycan array binding signal (z-score),[53],0.902
same,glycan array binding signal (z-score),[54],1.88
same,glycan array binding signal (z-score),[55],0.045
same,glycan array binding signal (z-score),[56],0.422
same,glycan array binding signal (z-score),[57],0.358
same,glycan array binding signal (z-score),[58],0.594
same,glycan array binding signal (z-score),[59],0.147
same,glycan array binding signal (z-score),[60],2
